Reference: publication PMC12136788
Some of the results follow.

T1: UNK ZnF1-3 (human, UniProt Q9C0B0 31-174)
T1 sequence: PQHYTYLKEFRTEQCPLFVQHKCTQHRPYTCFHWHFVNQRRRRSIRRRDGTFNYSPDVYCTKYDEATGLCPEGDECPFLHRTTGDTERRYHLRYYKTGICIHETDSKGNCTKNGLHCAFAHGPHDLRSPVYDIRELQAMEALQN

B1: chr6:15520614:15520615:+_ENSG00000008083_ENST00000341776|hu_mus|motif|central (ssRNA)
RNA: GGGAGUUCUACAGUCCGACGAUCUAGAUAUCUACGUACAAAAACUUGAACAGUUUAAUGCUAAAACAAAAUCAGUUCUCGGAAACCAGAAGAAAUUCUUCUUUAGAGCUAGUGCAAAGACAGCUUGUAUCCUACAGCAAGUACCAACAGAGGAUUGAGCAUCA
B2: chr4:99339852:99339853:+_ENSG00000138698_ENST00000453712|hu_hu|FALSE|FALSE (ssRNA)
RNA: GGGAGUUCUACAGUCCGACGAUCUGCAUGCUGUACUGUUACAUUUCCAUCUUCUACAUGUCUGUCCAGUAAAUCCAUAAGUUUUUCUACAAUCCCAUUGUCUACCAUAUGAAUACAAUUUGCAUCAUUUCUGGCAAAAUUUGCCAACAGAGGAUUGAGCAUCA
B3: chr4:19447016:19447017:-_ENSMUSG00000028228_ENSMUST00000029885|mus_mus|motif|central (ssRNA)
RNA: GGGAGUUCUACAGUCCGACGAUCUUUAUAAAAUGAUAAUCUAGAAGUUGGAAAUGCUUUUAUUUCAAAUUGCAGAAAACGGUGAAUUACUUUAAUUUGCCAGAAUCACAGCUCCUAUGAAUGGCAUUUAUAAAACUUGAUCAACAACAGAGGAUUGAGCAUCA
B4: chr10:133753640:133753641:+_ENSG00000175470_ENST00000482010|hu_hu|motif|central (ssRNA)
RNA: GGGAGUUCUACAGUCCGACGAUCAGUUUUAUCAUUUGUAGACAGUAGAAAAUGAGCAGCAUUCUGUUGUGGUAACCACCGGAUUUUAUUAAUUUUUUCCUCAAUUUCUAGACUUUUCAAAUAGUCAAACUCCGGUUCAUGACUCAACAGAGGAUUGAGCAUCA
B5: chr12:73047227:73047228:+_ENSMUSG00000034574_ENSMUST00000085299|mus_hu|motif|central (ssRNA)
RNA: GGGAGUUCUACAGUCCGACGAUCUUCAAAUCUUUUGGCAAAUUCUAGUUCAUCUUCAUUUCGGAGCAUUUCAAAAAAGUCGGAAUGCCUAUCUAAUGUUGAAUUUUCGUGUUCCCUUAAUUUAUCUAUUACAGGUUGAAUUCCCAACAGAGGAUUGAGCAUCA
B6: 86308067_86308809_1276_CDS_ENSG00000068654_ENST00000263857|human|control|control (ssRNA)
RNA: GGGAGUUCUACAGUCCGACGAUCCAUCUGGUCUCCUAGGCGACUGACUGGGCGAUACCUUGAGGGCGGCACCACCAAGAAAUCUAGAAAGAACACACUGGGAUUGAAUCUGGAUUCCAUACCAUCAUCAUCCAUUCCCGAAAACAACAGAGGAUUGAGCAUCA
B7: 99978248_99980192_1146_3pUTR_ENSG00000158417_ENST00000289371|human|control|control (ssRNA)
RNA: GGGAGUUCUACAGUCCGACGAUCCCUUUUUUCUUCUCUUUCUCUUUUUCUUCCUUUUCUCCUUUCUUUUUCUUCUUAUCUUUCUUCUUUUUGUCUCCUUCAUUGUCAUCUUCUGCAGCUGUGGGAGUCUCUGCUUUCUCUUCACAACAGAGGAUUGAGCAUCA
B8: chr1:163112212:163112213:-_ENSG00000143248_ENST00000313961|hu_hu|hu_hu_hu_mus_False|18_78 (ssRNA)
RNA: GGGAGUUCUACAGUCCGACGAUCUUUUAUUAUCAGUAAGAGUGAGUUACAUACUAGAUAAAGUAUUGGAUACAAUAAUCAGGAAACAAACACUAUUGGUCCAGAAUUUAAAACUUUUGGGAUAAAUUGCUGGCACAGGACUUACAACAGAGGAUUGAGCAUCA
B9: chr9:69870353:69870354:+_ENSMUSG00000033543_ENSMUST00000118198|mus_hu|FALSE|FALSE (ssRNA)
RNA: GGGAGUUCUACAGUCCGACGAUCUUCUACUGGAAUUCUCUGGUAUAGCACAGUGUAGUCAUUUCUGCAAUUCUAGAAUAAAUAAAAAGUCUCUUCUAUGCUUCUCUUCAAAAGCAAUGAAUAACAGAAGAUGGUGUAAAAAAGCAACAGAGGAUUGAGCAUCA
B10: 3507284_3511977_1005_3pUTR_ENSMUSG00000024908_ENSMUST00000113997|mouse|control|control (ssRNA)
RNA: GGGAGUUCUACAGUCCGACGAUCCACUGACUAUGGCCGAUUCAUUCUUCUCCUUGUGAAAAAUAUUUGACAGAAGCUGCUCAAUAAUUUCUUGCUUUUCUAGAGUGGCAAGCAGGGGGUCUGGCUCUGUACUGUUCUGAACUUCAACAGAGGAUUGAGCAUCA
B11: chr2:187370222:187370223:+_ENSG00000065548_ENST00000337859|hu_mus|FALSE|FALSE (ssRNA)
RNA: GGGAGUUCUACAGUCCGACGAUCUUUUCCUCUUCUUCCACGCGAGAAAAGACUCUAGAGUGAUUUUGGUAACAUUUGGACCUAGGGCAGAACGCUCUCUUUCAAUUAGAUCUUCUAAUGAGAUUUCAUCUUCCUUCUCUUCUUCAACAGAGGAUUGAGCAUCA
B12: chr7:141450121:141450122:+_ENSG00000106028_ENST00000265304|hu_mus|hu_hu_hu_mus_True|38_98 (ssRNA)
RNA: GGGAGUUCUACAGUCCGACGAUCUCAUCCGUUCUAUUCCUUCUCUUUUGUCUGGUCACUCAGAAAUAUAAUGUUAUCAGCUAUGAUUGUUGUUGCUUGUCGCCUCACAUUGUUUUUAUCCAUGUACUCGCCAUAGUCCACUUUCAACAGAGGAUUGAGCAUCA
B13: chr18:54278284:54278285:-_ENSG00000091164_ENST00000590954|hu_hu|FALSE|FALSE (ssRNA)
RNA: GGGAGUUCUACAGUCCGACGAUCGAAGUCAUUCAUAUUUGUUGCCUGGACUGGAGUACCAAUAAAAGUAAAAUAUGAAAUUCUUGUUGUUUCCUCUUCACCUUGAUUCGACUGAACAAAUAUAGUUACACUGUUAACAUUCUGCAACAGAGGAUUGAGCAUCA
B14: chr20:43533720:43533721:+_ENSG00000166913_ENST00000353703|hu_mus|FALSE|FALSE (ssRNA)
RNA: GGGAGUUCUACAGUCCGACGAUCAAAUGCCGUUUUGGCCAGGCUGCAGGCCUUUUCAGGAGAGUUUAGAAUCUCAUAGUAAAAGACUGAGAAAUUCAGCGCCAGGCCGAGGCGAAUCGGGUGUGUAGGCUGCAUUUCUUUCUUCAACAGAGGAUUGAGCAUCA

These binders were tested against T1, UNK ZnF1-3 (assay: nsRBNS (natural sequence RNA bind-n-seq); RBNS binding buffer (assumed for nsRBNS): 25 mM Tris pH 7.5, 150 mM KCl, 3 mM MgCl2, 0.01% Triton X-100, 500 ug/ml BSA, 20 U/ml SUPERase-In, 4 C; UNK is unkempt and MSI1 is Musashi-1; names of the RNAs are library labels; protein concentration not given here; high values mean tight binding).
B1 showed a binding signal of 0.919 enrichment R.
Binder B2 has a binding signal of 0.881 enrichment R.
B3 gave a binding signal of 1.01 enrichment R.
B4 gave a binding signal of 0.985 enrichment R.
B5 was tested, and the binding signal was 0.558 enrichment R.
Binder B6 has a binding signal of 1.24 enrichment R.
In the case of B7, the binding signal is reported as 0.0845 enrichment R.
B8 showed a binding signal of 1.1 enrichment R.
In the case of B9, the binding signal is reported as 1.16 enrichment R.
Binder B10 has a binding signal of 1.12 enrichment R.
B11 showed a binding signal of 0.538 enrichment R.
With B12 the binding signal was 0.372 enrichment R.
For B13, the binding signal was 1.27 enrichment R.
B14 showed a binding signal of 1.03 enrichment R.
